The results in this text go back to ChEMBL document CHEMBL4888484, “Replenishing the malaria drug discovery pipeline: Screening and hit evaluation of the MMV Hit Generation Library 1 (HGL1) against asexual blood stage Plasmodium falciparum ,using a nano luciferase reporter read-out” (2022).

Screen size: about 150,000 compounds; about 540 (0.36%) showed an effect of 50% or more. Some of the results follow.

This test relates to Plasmodium falciparum. Description: Primary screen in NF54 nanoGlo assay, in single point, at 2uM, 72h; a lower Z score goes with more inhibition. The following applies: timepoint 72 hour. Format: functional, Erythrocyte.
Usually % Inhibition stands for the change of the read-out against control, counted positive when it falls. As to `CCC(CN1CCCC(S(C)(=O)=O)C1)NC(=O)OC(C)(C)C` (stereo not drawn), the “% Inhibition” value turned out to be 7% and the Z score was -1.28.
With `Cc1onc(C(=O)N2CC3(CCCCC3)C[C@@H]2CO)c1COc1ccccc1`, the “% Inhibition” value is given as -22% and the Z score stood at 3.8.
The like results for `CCNC(=O)c1ccc(-c2cc(NC3CCCC3)nc3[nH]ccc23)nc1` were, in that order, -3% and 0.57.
As for `CC(=O)NCCN(C)[C@@H](C)c1ccc(F)cc1`, the “% Inhibition” value was -9% and the Z score was found to be 1.36.
The like results for `Cc1nc(C)n(C[C@H](O)COCc2ccccc2)n1` were, in that order, -7% and 0.8.
Consider `Cc1cnn(CCC(=O)NC(C)(C)c2c(C)noc2C)c1`, for which the “% Inhibition” value is on record as 1% and the Z score was -0.08.
The like results for `COc1cccc(OC)c1-c1c(-c2ccccc2)ncn1C[C@H]1COCCO1` were, in that order, -14% and 1.34.
For `CN(C(=O)OC(C)(C)C)c1ccc2ccccc2n1`, the “% Inhibition” value was -8% and the Z score is recorded as 0.97.
The like results for `CC(OC(=O)C1Cc2ccccc2C(=O)O1)C(=O)Nc1ccc(N2CCCCC2)cc1` (stereo not drawn) were, in that order, -12% and 1.6.
Take `Cc1cccc(C(=O)N2CC3CCC(N)C3C2)c1C` (stereo not drawn): the “% Inhibition” value is given as -10% and the Z score was found to be 1.34.
`C=CCC[C@@H](CN(C)Cc1cccnc1)Oc1cc(C)ccn1`: the “% Inhibition” value worked out at 1% and the Z score was -0.08.
The like results for `c1ccc2c(c1)C[C@H](Nc1nnc(C3CCC3)o1)CO2` were, in that order, 6% and -0.59.
The like results for `COC(CS(=O)(=O)N[C@H]1Cc2ccccc2[C@H]1OC)c1ccc(F)cc1` (stereo partly drawn) were, in that order, -5% and 0.61.
The like results for `CCc1nnc(CNC(=O)Nc2cc3[nH]cnc3c(C)c2C)s1` were, in that order, -9% and 1.78.
In the case of `O=S(=O)(NCC1(O)CCC1)c1ccc(Cl)cc1`, the “% Inhibition” value is listed as -2% and the Z score is listed as 0.29.
With `CO[C@H]1COC[C@@H]1NC(=O)c1c(C)noc1C`, the “% Inhibition” value is listed as -26% and the Z score worked out at 2.67.
As to `Cc1nnc(N2CCC([C@@H](O)CCc3ccccc3)CC2)s1`, the “% Inhibition” value is on record as -13% and the Z score is 2.09.
As to `O=S(=O)(NCCn1cc(-c2cccnc2)cn1)c1ccccc1`, the “% Inhibition” value is 21% and the Z score was -2.72.
The like results for `CCc1nc(CNC(=O)c2c(Br)cnn2CC)co1` were, in that order, -4% and 0.71.
Turning to `CC(C)c1nc2ccc(NC(=O)N[C@H]3CCOC(C)(C)C3)cc2s1`, the “% Inhibition” value is -5% and the Z score was 0.55.
The like results for `Cc1ccc(NC(=O)c2coc(CN3CCN(Cc4ccccc4F)CC3)n2)cc1C` were, in that order, -8% and 1.53.
The like results for `FC(F)(F)c1cnc2c(-c3ccc(Cl)cc3Cl)nnc(-c3ccc(Cl)cc3Cl)c2c1` were, in that order, 1% and -0.1.
The like results for `CC1CC(C)CN(C(=O)c2cnc3ccccn3c2=O)C1` (stereo not drawn) were, in that order, -13% and 2.36.
On to `O=C(c1cc[nH]n1)N1CCC(COc2ccccn2)CC1`, for which the “% Inhibition” value is listed as -9% and the Z score was 1.
